The source of these data is a protein production outcome set (Wang et al. 2014).

The nature of the data set: label from the status in PepcDB records.

For “MKDIDTLISNNALWSKMLVEEDPGFFEKLAQAQKPRFLWIGCSDSRVPAERLTGLEPGELFVHRNVANLVIHTDLNCLSVVQYAVDVLEVEHIIICGHYGCGGVQAAVENPELGLINNWLLHIRDIWFKHSSLLGEMPQERRLDTLCELNVMEQVYNLGHSTIMQSAWKRGQKVTIHGWAYGIHDGLLRDLDVTATNRETLEQRYRHGISNLKLKHANHK”, the protein production entry is given as “not failed”.
The same measure for “YKLVCYYTSWSQYREGDGSCFPDALDRFLCTHIIYSFANISNDHIDTWEWNDVTLYGMLNTLKNRNPNLKTLLSVGGWNFGSQRFSKIASNTQSRRTFIKSVPPFLRTHGFDGLDLAWLYPGRRDKQHFTTLIKEMKAEFIKEAQPGKKQLLLSAALSAGKVTIDSSYDIAKISQHLDFISIMTYDFHGAWRGTTGHHSPLFRGQEDASPDRFSNTDYAVGYMLRLGAPASKLVMGIPTFGRSFTLASSETGVGAPISGPGIPGRFTKEAGTLAYYEICDFLRGATVHRTLGQQVPYATKGNQWVGYDDQESVKSKVQYLKDRQLAGAMVWALDLDDFQGSFCGQDLRFPLTNAIKDALAAT”: “failed”.
